# The supplement of paper PMC8007513
# Counter-ions that a name gives are not always drawn. ± gives the standard error. The whole screen tested about 1,300 compounds, of which about 130 (10%) showed an effect of 50% or more. The list shows a part of the results, in another mix than the full data.
# Tested on: Trichoderma virens ATCC 9645
# Assay: growth yield (OD600) with compound + IPBC relative to untreated control; higher = less growth inhibition
# Settings: compound concentration: 100 uM, IPBC concentration: 200 ng/ml
# How it was run: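 Plates were read for OD600 at 40 h and 72 h after Trichoderma virens ATCC 9645 spores (15,000 spores ml^−1 in potato dextrose broth) were grown at 30 °C with library compounds at 100 μM final, with or without a biocide at 200 ng ml^−1. Growth is stated relative to the control with neither agent, as the mean of duplicate screens.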
SMILES,growth yield (40 h) [%],growth yield (72 h) [%]
COc1ccc2[nH]c([S+]([O-])Cc3ncc(C)c(OC)c3C)nc2c1 (centres undefined) [Omeprazole] + CCCCNC(=O)OCC#CI [3-iodo-2-propynyl butylcarbamate (IPBC)],86.9 ± 16,90.6 ± 9.7
Cc1cc(-n2c(=O)[nH]c(=O)n(C)c2=O)ccc1Oc1ccc(SC(F)(F)F)cc1 [Toltrazuril] + CCCCNC(=O)OCC#CI [3-iodo-2-propynyl butylcarbamate (IPBC)],87.8 ± 2.4,94.5 ± 3
Cc1ccccc1N1C(=O)c2cc(S(N)(=O)=O)c(Cl)cc2NC1C (centres undefined) [Metolazone] + CCCCNC(=O)OCC#CI [3-iodo-2-propynyl butylcarbamate (IPBC)],99.9 ± 7.8,101 ± 4.7
CCOC(=O)C1=C[C@]2(CC)CCCN3CCc4c(n1c1ccccc41)[C@@H]32 [Vinpocetine] + CCCCNC(=O)OCC#CI [3-iodo-2-propynyl butylcarbamate (IPBC)],89.3 ± 7.9,93.2 ± 6.6
O=C(O)CCC(=O)Nc1ccc(S(=O)(=O)Nc2nccs2)cc1 [Succinylsulfathiazole] + CCCCNC(=O)OCC#CI [3-iodo-2-propynyl butylcarbamate (IPBC)],95 ± 8.9,94.8 ± 5.7
COc1cnc(NS(=O)(=O)c2ccc(N)cc2)nc1 [Sulfameter] + CCCCNC(=O)OCC#CI [3-iodo-2-propynyl butylcarbamate (IPBC)],101 ± 7.5,101 ± 3.5
Cc1cccc(CN2CCN(C(c3ccccc3)c3ccc(Cl)cc3)CC2)c1 (centres undefined) [Meclozine dihydrochloride] + CCCCNC(=O)OCC#CI [3-iodo-2-propynyl butylcarbamate (IPBC)],3.02 ± 1.1,3.78 ± 0.63
CNCCC(Oc1ccccc1OC)c1ccccc1 (centres undefined) [Nisoxetine hydrochloride] + CCCCNC(=O)OCC#CI [3-iodo-2-propynyl butylcarbamate (IPBC)],88.5 ± 1.8,93.86 ± 0.52
CCCCC(C)(O)C/C=C/[C@H]1[C@H](O)CC(=O)[C@@H]1CCCCCCC(=O)OC (mixture of isomers) [Misoprostol] + CCCCNC(=O)OCC#CI [3-iodo-2-propynyl butylcarbamate (IPBC)],94.7 ± 3.5,102 ± 2.8
CC(=O)N(CC(C)C(=O)O)c1c(I)cc(I)c(N)c1I (centres undefined) [Iocetamic acid] + CCCCNC(=O)OCC#CI [3-iodo-2-propynyl butylcarbamate (IPBC)],107 ± 18,102 ± 11
COc1cc(C(=O)NC2CCCNC2)cc(OC)c1OC (centres undefined) [Troxipide] + CCCCNC(=O)OCC#CI [3-iodo-2-propynyl butylcarbamate (IPBC)],116 ± 3.8,106.03 ± 0.1
C[C@]12CC[C@@H]3c4ccc(O)cc4CC[C@H]3[C@@H]1CCC2=O [Estrone] + CCCCNC(=O)OCC#CI [3-iodo-2-propynyl butylcarbamate (IPBC)],73.9 ± 2.1,81.6 ± 0.84
CN1CC2c3ccccc3Oc3ccc(Cl)cc3C2C1 (centres undefined) [Asenapine maleate] + CCCCNC(=O)OCC#CI [3-iodo-2-propynyl butylcarbamate (IPBC)],71 ± 2.7,88.5 ± 2.1
c1ccc2[nH]c(-c3cscn3)nc2c1 [Tiabendazole] + CCCCNC(=O)OCC#CI [3-iodo-2-propynyl butylcarbamate (IPBC)],4.7652 ± 1.4e-15,3.3561 ± 1.3e-15
CCCCCCCN(CC)CCCC(O)c1ccc(NS(C)(=O)=O)cc1 (centres undefined) [Ibutilide fumarate] + CCCCNC(=O)OCC#CI [3-iodo-2-propynyl butylcarbamate (IPBC)],85 ± 1.4,88.1 ± 0.63
COc1ccc(-c2cc(=O)c3c(O)cc(O[C@@H]4O[C@H](CO[C@@H]5O[C@@H](C)[C@H](O)[C@@H](O)[C@H]5O)[C@@H](O)[C@H](O)[C@H]4O)cc3o2)cc1O [Diosmin] + CCCCNC(=O)OCC#CI [3-iodo-2-propynyl butylcarbamate (IPBC)],86.09 ± 0.64,92.08 ± 0.21
CC(=O)[C@H]1CC[C@H]2[C@@H]3CC[C@H]4C[C@H](O)CC[C@]4(C)[C@H]3C(=O)C[C@]12C [Alfaxalone] + CCCCNC(=O)OCC#CI [3-iodo-2-propynyl butylcarbamate (IPBC)],79.4 ± 8.3,90.1 ± 4.9
CCn1cc(C(=O)O)c(=O)c2cnc(N3CCCC3)nc21 [Piromidic acid] + CCCCNC(=O)OCC#CI [3-iodo-2-propynyl butylcarbamate (IPBC)],99.9 ± 14,99.5 ± 5.3
O=S(=O)(O)CCS [Mesna] + CCCCNC(=O)OCC#CI [3-iodo-2-propynyl butylcarbamate (IPBC)],99.12 ± 0.64,95.1 ± 1.4
CCCCNC(=O)NS(=O)(=O)c1ccc(C)cc1 [Tolbutamide] + CCCCNC(=O)OCC#CI [3-iodo-2-propynyl butylcarbamate (IPBC)],87.4,98.58 ± 0.21
CCOC(=O)OC(C)OC1=C(C(=O)Nc2ccccn2)N(C)S(=O)(=O)c2ccccc21 (centres undefined) [Ampiroxicam] + CCCCNC(=O)OCC#CI [3-iodo-2-propynyl butylcarbamate (IPBC)],85.3 ± 3,91.5 ± 1.9
CC(=O)[C@H]1CC[C@H]2[C@@H]3C[C@H](C)C4=CC(=O)CC[C@]4(C)[C@H]3[C@@H](O)C[C@]12C [Medrysone] + CCCCNC(=O)OCC#CI [3-iodo-2-propynyl butylcarbamate (IPBC)],74.8 ± 3,86.3 ± 1.8
OCc1cc(C(O)CNCCCCCCOCCCCc2ccccc2)ccc1O (centres undefined) [Salmeterol] + CCCCNC(=O)OCC#CI [3-iodo-2-propynyl butylcarbamate (IPBC)],34.9 ± 1.6,–
CC(=O)OCC(=O)[C@@]12N=C(C)O[C@@H]1C[C@H]1[C@@H]3CCC4=CC(=O)C=C[C@]4(C)[C@H]3[C@@H](O)C[C@@]12C [Deflazacort] + CCCCNC(=O)OCC#CI [3-iodo-2-propynyl butylcarbamate (IPBC)],100 ± 15,99.8 ± 10
O=C(O)Cc1sc(-c2ccccc2)nc1-c1ccc(Cl)cc1 [Fentiazac] + CCCCNC(=O)OCC#CI [3-iodo-2-propynyl butylcarbamate (IPBC)],25.4,77.1 ± 16
